# Data from the supplement of paper PMC7826260.
# This is one part of the list. Viral Rep nickase domains cut single-stranded DNA in vitro for 1 h at 37 °C with 3 µM enzyme; only the middle of the 90-letter strands is printed. The score is log2 (uncut reads / reads without enzyme); uncut sequences lie near 0, cut ones below; no hit call is given. Shares of all reads are compared; where an enzyme cuts many sequences, the uncut ones exceed 0.
# Tested on: T1, Rep nickase domain of wheat dwarf virus
# T1 sequence (residues 1-137, tag not shown): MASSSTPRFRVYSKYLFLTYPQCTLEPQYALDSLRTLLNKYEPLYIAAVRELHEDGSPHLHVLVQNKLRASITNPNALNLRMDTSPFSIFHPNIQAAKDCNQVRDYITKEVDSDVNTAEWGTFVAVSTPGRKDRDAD
# Assay: uncleaved DNA left, log2 of reads against the no-enzyme library (log2 ratio); higher = less cleavage (more negative = more Rep cleavage of the k-mer); sequences stand for … in CTCGTCCG…ACCGGAGA
# Method: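 A pool of 90-nt single-stranded DNAs with seven random bases just before the constant AC of the nick site (name = the seven bases) was cut by 3 µM recombinant His6-SUMO-tagged Rep nickase domain (300 nM DNA, 50 mM HEPES pH 8.0, 50 mM NaCl, 1 mM MnCl2, 1 h, 37 °C, three replicates). Uncut DNA was amplified and sequenced.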
row,Sequence,uncleaved DNA left (log2)
1,TCGCGGC,-0.167
2,CTATTCA,0.101
3,GGAAGGG,-0.0966
4,AGAACGG,0.13
5,TGCAATT,-0.0342
6,GCAAGAC,0.0806
7,TTCAAAT,0.142
8,GAGGGGA,0.0615
9,ACCGACT,0.122
10,GTTGAAA,0.146
11,CAATCCG,-0.0329
12,ATCCCTA,-0.0761
13,ACATGCC,0.0079
14,TAGCCAC,-0.0384
15,ATACTGG,-0.00304
16,GATTAAG,-0.107
17,TCACTTA,0.00294
18,TTCATCA,0.249
19,CGCCTTG,-0.114
20,AATAGCG,-0.144

row,Sequence,uncleaved DNA left (log2)
1,TAACATA,-0.346
2,CGGATGT,0.0546
3,GGGGTGC,0.12
4,CTCTTTG,-0.017
5,GGCTGTA,0.135
6,ACCATTG,-0.00798
7,GCGATCA,0.0563
8,GCGAGCG,-0.0748
9,GTGAGAT,0.34
10,CCCCGGT,-0.0349
11,TATGGAT,0.0738
12,ACGTTCG,-0.0389
13,GCGCCGT,0.0838
14,CGCTCGA,-0.189
15,GCAGTGA,-0.014
16,TTAACGT,-0.0213
17,GAGCTAT,0.0709
18,CATGTAA,0.0309
19,GGTAAAC,0.0863
20,CTCTTTT,-0.219
